In all, about 340,000 compounds went through this assay and about 6,900 (2%) were called active. Cut-off read from the data, not from the text of the source: active = inhibition above about 30%; inactive = below that, where a call was filed. This is a selection; strong and weak results do not stand in their true shares. The source gives no active or inactive call for entries shown without one.

The test concerns the target D(2) dopamine receptor (Homo sapiens) (UniProt P14416). The experiment in a line: HTS Assay for Allosteric Antagonists of the Human D2 Dopamine Receptor: Primary Screen for Antagonists. Note: 0% is about no effect. The following applies: HEK293 TREx D2 cells, calcium flux, dopamine EC80; at 10 µM; stronger effect = higher value. In short, it runs like this: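 Dopamine at EC80 is the agonist stimulus; test compounds precede it by 180 s. Calcium flux read kinetically in a force-coupled, inducible HEK293 T-REx D2 cell line.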
Sequence of UniProt P14416 (P14416 whole entry, looked up): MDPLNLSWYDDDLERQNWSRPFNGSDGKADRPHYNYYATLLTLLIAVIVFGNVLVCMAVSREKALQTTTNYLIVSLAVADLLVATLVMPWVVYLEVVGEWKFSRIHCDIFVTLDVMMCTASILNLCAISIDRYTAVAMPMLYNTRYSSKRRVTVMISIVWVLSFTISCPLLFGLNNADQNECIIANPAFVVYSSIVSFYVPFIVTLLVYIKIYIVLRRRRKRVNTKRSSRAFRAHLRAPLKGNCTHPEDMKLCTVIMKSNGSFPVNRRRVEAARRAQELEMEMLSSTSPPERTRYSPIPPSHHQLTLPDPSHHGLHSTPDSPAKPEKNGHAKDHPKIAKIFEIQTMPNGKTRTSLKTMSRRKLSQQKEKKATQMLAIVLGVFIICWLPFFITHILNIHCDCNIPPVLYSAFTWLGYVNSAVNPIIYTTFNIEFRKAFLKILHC
On the technique in general: A change in cytosolic calcium serves as a functional read-out for many receptors and channels.
Broadly, the inhibition is the relative decrease from the control value, in per cent. Consider `Cc1cc(S(=O)(=O)Nc2ccc3oc4c(c3c2)CCCC4)ccc1Cl`, for which the inhibition was -10.6%.
The same measure for `CCc1cccc(-n2c(=O)c3cccnc3n2CC(=O)Nc2ccc(OC)c(Cl)c2)c1`: -0.698%; for `COc1ccc(NC(=O)C2Cc3ccccc3CN2S(=O)(=O)c2ccccc2)cc1OC` (stereo not drawn): -16.9%; for `COc1ccc(C(=O)Oc2ccc(C(c3c(C)[nH][nH]c3=O)c3c(C)[nH][nH]c3=O)cc2)cc1`: -5.4%.
For the molecule `COc1cccc(-n2c(SCC(N)=O)nc3c(oc4ccccc43)c2=O)c1`, the inhibition was 2.53%.
Take `CCc1ccccc1NC(=O)CCCn1c(=O)c2cccn2c2ccccc21`: the inhibition is 23.6%.
The same measure for `CCC(=O)Nc1ccc(CC)cc1-c1nc2ccccc2n(CC(=O)c2ccc(OC)cc2)c1=O`: 23%; for `Cc1ccc(-c2cc(NC(=O)c3cccc(C)c3)on2)cc1`: 4.81%; for `CCc1nonc1NC(=O)c1oc2cc(C)c(C)cc2c1C`: 8.87%.
For `O=S(=O)(NCc1ccc(F)cc1)c1ccc2[nH]c3c(c2c1)CCCC3`, the inhibition was -20.8%.
Take `Cc1c(Cl)cccc1NC(=O)c1oc2ccc(S(=O)(=O)N3CCC4(CC3)OCCO4)cc2c1C`: the inhibition amounted to 19.6%.
The same measure for `CCCCSc1nc(-c2cccc(OC)c2)nc2c1Cc1c(CO)cnc(C)c1O2`: 1.52%.
Take `N#CCO/N=C/C(=O)Nc1ccc(F)cc1F`: the inhibition was active: 53.2%.
For `Cc1ccc(NC(=O)c2cnc3cc(C)ccn3c2=O)c(C)c1`, the inhibition is -0.46%.
The same measure for `COc1ccc(-c2cc(C(=O)Nc3cc(C)nn3-c3ccccc3)no2)cc1OC`: 15.4%.
The same measure for `Cc1ccc(C(=O)Nc2cc(-c3nc4cc(Cl)ccc4o3)ccc2C)c(C)c1`: 4.8%.
The figure for `O=S(=O)(NCc1csc(-c2ccccc2)n1)c1ccccc1` is -11%; for `COc1ccc(Cn2c(CNS(=O)(=O)c3ccc(Cl)s3)nc3cccnc32)cc1` it is -17.9%.
In the case of `Cc1cccc(Cn2c(CN3CCC(C(=O)NCc4ccccc4Cl)CC3)cc3ccccc32)c1`, the inhibition was determined as 15.5%.
The figure for `CCCN1C(=O)c2[nH]nc(-c3ccc(OC)cc3)c2C1c1ccccn1` (stereo not drawn) is -12.6%; for `COC(=O)c1sc(N2C(=O)c3oc4cc(C)c(C)cc4c(=O)c3C2c2ccccc2F)nc1C` (stereo not drawn) it is -0.482%; for `COc1ccc(C(CNC(=O)C(CCSC)NC(=O)c2ccccc2Cl)N2CCCCC2)cc1` (stereo not drawn) it is active: 40.7%.
Turning to `COc1ccc(CN2CCc3nc(N4CCN(c5ccc(F)cc5)CC4)ncc3C2)c(OC)c1OC`, the inhibition amounted to 5.3%.
On to `CCOCCCNC(=O)C1CCN(c2nc3ccc(Cl)cc3[nH]2)CC1`, for which the inhibition was -7.86%.
Consider `O=C(c1cnn(-c2ccc(F)cc2)c1-n1cccc1)N1CCN(c2cccc(Cl)c2)CC1`, for which the inhibition was -11.2%.
The figure for `COc1cccc(NC(=O)Cn2nc(-c3ccncc3)ccc2=O)c1` is -0.256%; for `CNC(=O)C1CCC(Cn2c(=O)c3sccc3n(CC(=O)Nc3cc(C)cc(C)c3)c2=O)CC1` (stereo not drawn) it is -10.4%; for `COc1ccc(Cl)cc1NC(=O)c1noc2c1CCCC2` it is active: 31.3%.
The figure for `O=C(c1c[nH]c2ccc(S(=O)(=O)Nc3ccccc3F)cc2c1=O)N1CCCCCC1` is -3.51%; for `Cc1cc2ccccn2c1C(=O)c1ccc([N+](=O)[O-])o1` it is active: 36.4%; for `CC(C)c1ccc(C(=O)CC2(O)C(=O)N(CCc3ccccc3)c3ccc(Cl)cc32)cc1` (stereo not drawn) it is 19.6%.
Take `CCOc1ccc(NC(=O)C(=O)NCCc2sc(-c3ccc(C)cc3)nc2C)cc1`: the inhibition came out at 4.42%.
In the case of `COc1ccc(OC)c(NC(=O)C2CCN(S(=O)(=O)c3c(C)noc3/C=C/c3ccc(C)cc3)CC2)c1`, the inhibition was -21.4%.
As for `COc1cccc(-c2nn(C)c3sc(C(=O)NCCCN(C)Cc4ccccc4)cc23)c1`, the inhibition is active: 33.2%.
The same measure for `CCC(C)n1c(=N)c(C(=O)NCc2ccco2)cc2c(=O)n3cc(C)ccc3nc21` (stereo not drawn): -12.4%; for `CC1CCCCN1CCCNC(=O)c1sc2ncccc2c1-n1cccc1` (stereo not drawn): 6.29%; for `O=C(CSc1nnc2[nH]c(=O)cc(-c3ccccc3)n12)Nc1ccccc1C(F)(F)F`: 11.3%.
Consider `O=[N+]([O-])c1ccccc1OCCNCc1ccccc1`, for which the inhibition is active: 78.1%.
Regarding `Cc1cccc(NC(=O)Nc2ccc(C)c(C)c2)n1`, the inhibition was -14.4%.
Turning to `Cc1cc(OCC(=O)Nc2ccc(C(=O)OC3CCCCC3)cc2)ccc1Cl`, the inhibition was determined as 16.6%.
Regarding `O=c1c2cccnc2n(Cc2ccc(Cl)cc2)c(=O)n1Cc1ccc(F)cc1`, the inhibition was -1.63%.
The same measure for `CNC(=O)c1cccc(-n2c(C)nc3cccnc32)c1C`: 0.815%; for `CCCSc1nnc(NC(=O)Cc2coc3cc(C)ccc23)s1`: -4.85%.
For the molecule `CC(=O)c1ccc(NC(=O)CSc2nc3c(=O)n(C)c(=O)n(C)c3n2C)cc1`, the inhibition is -3.41%.
The same measure for `CC(=O)Nc1ccc(S(=O)(=O)N2CCN(c3ccc(C)c(C)c3)CC2)cc1`: 15.8%; for `Cc1cc(N2CCN(C)CC2)nc2ccc(NC(=O)c3ccccc3F)cc12`: -4.28%.
`CCc1ccc(NC(=O)CSC2=Nc3ccccc3C3=NC(CC(=O)NCc4cccs4)C(=O)N23)cc1` (stereo not drawn): the inhibition turned out to be 2.59%.
In the case of `COc1cccc(N2CCN(C(=O)c3ccc4c(Cl)c5c(nc4c3)CCCC5)CC2)c1`, the inhibition amounted to 5.98%.
Regarding `CCC(=O)N1CCc2cc(Br)cc(S(=O)(=O)N3CCC(C(=O)Nc4cccc(C)c4)CC3)c21`, the inhibition is 1.06%.
The same measure for `Cc1cc2c(cc3c(SCc4cccc(Cl)c4)nnc(C)n32)o1`: 5%.
Turning to `CCC(Cn1nnc2ccccc2c1=O)NC(=O)Nc1cc(OC)cc(OC)c1` (stereo not drawn), the inhibition was determined as 1.14%.
The same measure for `O=C(NCc1ccccc1)c1ccc(CSc2nc3cccnc3n2Cc2ccccc2)cc1`: -14.1%.
The same measure for `Cn1cc(S(=O)(=O)c2ccccc2)c(=O)c2cc(F)c(N3CCCC3)cc21`: 8.38%; for `COC(=O)C1=C(O)/C(=C\c2cc(C)n(-c3ccccc3C)c2C)N=C1C`: active: 32.1%; for `Fc1ccc(N2CCN(c3nnnn3-c3ccccc3)CC2)cc1`: active: 50.2%.
The same measure for `CCc1cccc(C)c1NC(=O)c1cc2ccccc2o1`: -12.8%; for `CCc1ccc2nc(N3CCC(C(=O)NCCC(C)C)CC3)sc2c1`: -1.45%; for `CCCCNC(=O)c1cnc2c(-c3ccc(OCC)c(OCC)c3)c(C)nn2c1-c1ccccc1`: -5.41%.
In the case of `CCN(Cc1ccccc1)S(=O)(=O)c1ccc(N2CCCCS2(=O)=O)cc1`, the inhibition was -25.9%.
Regarding `O=C(CCS(=O)(=O)c1cc2c(cc1Cl)NC(=O)CO2)NCc1ccccc1`, the inhibition is 28.2%.
The figure for `O=C1CCSC2(C(=O)N(Cc3ccccc3)c3ccccc32)N1c1ccccc1` (stereo not drawn) is 8.52%; for `CCOC(=O)c1c(C)n(-c2ccc(C)cc2)c2ccc(O)c(CN(C)C)c12` it is active: 39.7%; for `CCCCOc1ccc(S(=O)(=O)n2nc(C)c(S(=O)(=O)N3CCCCCC3)c2C)cc1` it is 15%.

(Values after PubChem BioAssay AID485344 (National Center for Advancing Translational Sciences (NCATS), 2010).)
